Results from US20200085917A1 (UNIVERSITY OF PITTSBURGH OF THE COMMONWEALTH SYSTEM OF …, published 2020).

How the values were obtained:
Experiment in all cases: GST pull-down, LC-MS/MS
[1] = target: T1, Slc25a10_IPI:IPI00317074.3 (mouse, UniProt Q9QZD8 1-287)
T1 sequence (looked up): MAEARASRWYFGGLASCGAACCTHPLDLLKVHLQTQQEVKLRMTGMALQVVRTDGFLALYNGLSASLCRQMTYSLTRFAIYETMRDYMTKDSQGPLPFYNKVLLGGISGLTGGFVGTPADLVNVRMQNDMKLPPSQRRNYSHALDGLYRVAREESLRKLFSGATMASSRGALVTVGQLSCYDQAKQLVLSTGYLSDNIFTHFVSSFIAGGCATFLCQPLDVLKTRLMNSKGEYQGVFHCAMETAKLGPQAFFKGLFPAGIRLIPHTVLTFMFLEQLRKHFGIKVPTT
Experimental: (§1) Extracts were spun at 14,000 r.p.m. at 4° C., and clarified supernatants were incubated with glutathione 4B Sepharose beads (GE Healthcare) at 4° C. overnight. The glutathione beads were then washed extensively with ice-cold TNE buffer, and bound proteins were subjected to SDS-PAGE followed by immunoblotting analysis. For the samples subjected to mass spectrometry, glutathione bead-bound proteins from equal amounts (600 μg) of mitochondria were further washed with high stringency RIPA buffer following TNE buffer wash to decrease nonspecific interaction. Proteins were then eluted from the glutathione beads in SDS sample buffer, separated by SDS-PAGE and stained with Coomassie. Proteins in the gel were digested with trypsin and analyzed by mass spectrometry (LC-MS/MS) at the Taplin Biological Mass Spectrometry Facility (Harvard Medical School, Boston, Mass.).

Ywhaq_IPI:IPI00408378.4 = target: T2, Ywhaq_IPI:IPI00408378.4 (mouse, UniProt P68254 1-245)
T2 sequence (looked up): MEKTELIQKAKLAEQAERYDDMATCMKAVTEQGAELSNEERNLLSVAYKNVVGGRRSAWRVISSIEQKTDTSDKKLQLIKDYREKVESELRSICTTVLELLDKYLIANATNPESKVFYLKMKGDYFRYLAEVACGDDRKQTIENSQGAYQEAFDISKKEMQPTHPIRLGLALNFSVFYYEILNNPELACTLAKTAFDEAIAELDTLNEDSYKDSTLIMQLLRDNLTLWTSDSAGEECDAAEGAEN
Experimental: as §1

Ywhaz_IPI:IPI00116498.1 = target: T3, Ywhaz_IPI:IPI00116498.1 (mouse, UniProt P63101 1-245)
T3 sequence (looked up): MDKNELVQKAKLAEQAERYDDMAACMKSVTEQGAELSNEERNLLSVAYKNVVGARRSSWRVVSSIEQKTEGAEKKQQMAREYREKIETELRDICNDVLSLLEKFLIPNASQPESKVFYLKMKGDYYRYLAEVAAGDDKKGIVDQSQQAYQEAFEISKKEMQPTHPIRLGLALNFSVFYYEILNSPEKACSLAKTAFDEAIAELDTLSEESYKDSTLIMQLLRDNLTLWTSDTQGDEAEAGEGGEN
Experimental: as §1

Dsg1c_IPI:IPI00331259.3 = target: T4, Dsg1c_IPI:IPI00331259.3 (mouse, UniProt Q7TSF0 50-911, limits assumed)
T4 sequence (looked up): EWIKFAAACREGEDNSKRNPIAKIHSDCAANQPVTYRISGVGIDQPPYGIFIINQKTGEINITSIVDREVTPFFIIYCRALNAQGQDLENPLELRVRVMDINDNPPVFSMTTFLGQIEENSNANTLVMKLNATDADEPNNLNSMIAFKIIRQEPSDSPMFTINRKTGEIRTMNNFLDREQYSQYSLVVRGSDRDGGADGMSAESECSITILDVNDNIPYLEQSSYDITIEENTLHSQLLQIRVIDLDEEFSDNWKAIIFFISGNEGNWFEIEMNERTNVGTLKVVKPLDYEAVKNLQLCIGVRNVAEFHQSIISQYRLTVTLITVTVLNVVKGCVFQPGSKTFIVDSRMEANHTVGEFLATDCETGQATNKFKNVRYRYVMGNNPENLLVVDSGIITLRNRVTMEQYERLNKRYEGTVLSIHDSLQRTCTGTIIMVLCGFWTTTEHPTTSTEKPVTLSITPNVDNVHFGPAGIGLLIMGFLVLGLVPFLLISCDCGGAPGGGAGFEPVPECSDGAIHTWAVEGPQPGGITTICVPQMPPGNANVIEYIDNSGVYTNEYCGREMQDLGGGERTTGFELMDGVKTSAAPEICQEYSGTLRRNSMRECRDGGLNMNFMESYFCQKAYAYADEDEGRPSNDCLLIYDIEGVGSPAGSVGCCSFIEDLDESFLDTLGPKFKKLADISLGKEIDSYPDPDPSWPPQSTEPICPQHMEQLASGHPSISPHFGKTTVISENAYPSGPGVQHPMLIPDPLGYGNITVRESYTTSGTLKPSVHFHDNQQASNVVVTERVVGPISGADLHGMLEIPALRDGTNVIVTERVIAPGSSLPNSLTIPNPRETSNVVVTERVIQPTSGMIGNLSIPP
Experimental: as §1

Gstk1_IPI:IPI00121051.3 = target: T5, Gstk1_IPI:IPI00121051.3 (mouse, UniProt Q9DCM2 1-226)
T5 sequence (looked up): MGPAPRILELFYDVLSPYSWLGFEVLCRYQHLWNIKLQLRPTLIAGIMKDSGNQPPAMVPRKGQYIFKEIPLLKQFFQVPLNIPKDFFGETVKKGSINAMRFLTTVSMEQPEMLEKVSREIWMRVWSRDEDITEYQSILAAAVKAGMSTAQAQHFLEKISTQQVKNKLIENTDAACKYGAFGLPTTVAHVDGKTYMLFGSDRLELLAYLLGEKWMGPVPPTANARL
Experimental: as §1

Hspa5_IPI:IPI00319992.1 = Hspa5_IPI:IPI00319992.1 (mouse, UniProt P20029 20-655)
Chain of Hspa5_IPI:IPI00319992.1 (P20029 20-655 limits assumed): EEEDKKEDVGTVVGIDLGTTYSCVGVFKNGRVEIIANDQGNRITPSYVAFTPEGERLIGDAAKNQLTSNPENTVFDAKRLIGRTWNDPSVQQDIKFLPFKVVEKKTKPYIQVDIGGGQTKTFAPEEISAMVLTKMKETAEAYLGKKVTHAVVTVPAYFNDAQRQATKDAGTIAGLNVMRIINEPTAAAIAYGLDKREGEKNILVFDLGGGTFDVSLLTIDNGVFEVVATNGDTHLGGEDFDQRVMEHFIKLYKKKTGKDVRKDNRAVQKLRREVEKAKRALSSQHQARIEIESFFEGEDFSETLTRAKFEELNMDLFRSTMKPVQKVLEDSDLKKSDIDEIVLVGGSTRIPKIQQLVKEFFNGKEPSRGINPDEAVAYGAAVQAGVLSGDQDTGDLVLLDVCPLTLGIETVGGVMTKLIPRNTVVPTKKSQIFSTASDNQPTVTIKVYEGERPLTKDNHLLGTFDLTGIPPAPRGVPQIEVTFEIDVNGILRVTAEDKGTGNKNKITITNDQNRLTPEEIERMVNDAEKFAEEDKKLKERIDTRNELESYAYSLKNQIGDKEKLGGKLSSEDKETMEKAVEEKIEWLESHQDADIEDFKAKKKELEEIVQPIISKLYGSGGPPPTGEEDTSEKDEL
Experimental: as §1

Pptc7_IPI:IPI00421081.3 = target: T6, Pptc7_IPI:IPI00421081.3 (mouse, UniProt Q6NVE9 75-310, limits assumed)
T6 sequence (looked up): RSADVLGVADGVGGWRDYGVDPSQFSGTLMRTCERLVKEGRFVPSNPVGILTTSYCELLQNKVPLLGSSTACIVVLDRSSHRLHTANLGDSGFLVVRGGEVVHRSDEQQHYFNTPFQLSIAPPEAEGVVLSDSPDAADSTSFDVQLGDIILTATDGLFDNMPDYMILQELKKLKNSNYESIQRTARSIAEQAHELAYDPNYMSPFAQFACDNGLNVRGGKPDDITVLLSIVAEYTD
Experimental: as §1

Measured: binding result

B1: GST alone (other)
chain: not shown
notes: Negative control of the pull-downs; also called control GST
no binding: all assays above
